Consider 91 compounds from PubChem BioAssay AID463173 (ICCB-Longwood Screening Facility, Harvard Medical School, 2010).

The whole screen tested about 52,000 compounds, of which about 4,300 (8.3%) were called active. Cut-off read from the data, not from the text of the source: active = survival mostly below about 52% (no sharp cut-off); inactive = mostly above about 56%. The list shows a part of the results.

The test deals with DeltatarO mutant. Nature of the test: growth inhibition of S. aureus wild type versus tarO mutant, primary screen, teichoic acid synthesis inhibitors, RN4220, OD600 (AID 463173). The note with it: OD600, 18 h, stronger effect = lower value, screened at 18.75 µg/mL (by protocol).
Consider `COc1cc(C)ccc1OCCSc1nc2ccc(NC(=O)c3ccc(F)cc3)cc2s1`, for which the survival was inactive: 56%.

Consider `CCCCOc1ccc(C(=O)Nc2ccc(-c3nc4ccccc4s3)cc2C)cc1`, for which the survival is inactive: 67%.

As to `Cn1ccc2cc(S(=O)(=O)N3CCC(C(=O)NCCc4ccccc4)CC3)ccc21`, the survival was inactive: 89%.

Consider `N#Cc1ccccc1NC(=O)Cn1cnc2onc(-c3cccc(F)c3)c2c1=O`, for which the survival was inactive: 82%.

Turning to `Cc1ccc(C)n1-c1nnc(N2CCCC(C(=O)Nc3ccc(C(C)C)cc3)C2)s1` (stereo unspecified), the survival was inactive: 88%.

With `COC(=O)c1ccccc1NC(=O)Cn1c(=O)n(Cc2ccc(C(=O)NCc3ccc4c(c3)OCO4)cc2)c(=O)c2ccccc21`, the survival was inactive: 63%.

For the compound `CCOC(=O)CCc1c(C)nc(SCC(=O)O)c(C#N)c1C`, the survival is inactive: 82%.

Turning to `COc1cccc(C(=O)c2sc3nc(-c4ccccc4)cc(C(F)(F)F)c3c2N)c1`, the survival was active: 37%.

With `CCn1c(SCCN2CCCC2)nnc1C1CCCN(C(=O)c2ccc3c(c2)OCO3)C1` (stereo unspecified), the survival is inactive: 78%.

On to `CC(C)(C)OC(=O)N1CC2C(C1)C2NC(=O)c1nsc(Cl)c1Cl` (stereo unspecified), for which the survival was inactive: 82%.

As to `Cc1ccc(C)c(N2C(=O)N(Cc3cc(=O)n4ccccc4n3)c3ccccc3S2(=O)=O)c1`, the survival is inactive: 71%.

As for `CCOC(=O)c1c(C)oc2ncnc(Nc3ccc(OCC)cc3)c12`, the survival was inactive: 89%.

`CC1(C)CC(=O)c2cc(-c3nc(-c4ccc(Cl)cc4)cs3)c(=O)n(-c3ccc(Cl)cc3)c2C1`: the survival was inactive: 68%.

In the case of `COc1ccc(NC(=O)Cn2nc(-c3ccncc3)ccc2=O)cc1Cl`, the survival was inactive: 92%.

Take `CCn1c(=N)c(S(=O)(=O)c2ccc(C)cc2)cc2c(=O)n3ccccc3nc21`: the survival is inactive: 83%.

With `O=C(CNC1CCCC1)Nc1ccc(N2CCCC2)cc1`, the survival was inactive: 61%.

In the case of `CCc1ccc(NC(=O)CN2C(=O)C3(SCC(=O)N3c3ccccc3)c3ccccc32)cc1` (stereo unspecified), the survival was inactive: 129%.

Regarding `CCOC(=O)C1CCN(CC(=O)N2CCCc3c2c(=O)oc2ccc(OCc4ccccc4)cc32)CC1`, the survival was inactive: 105%.

As for `COc1ccc(-c2onc(C)c2C)cc1S(=O)(=O)N(C)Cc1ccco1`, the survival was inactive: 85%.

As to `CN1C(=O)C2(SCC(=O)N2c2cccc(C(F)(F)F)c2)c2ccccc21` (stereo unspecified), the survival is inactive: 113%.

For the compound `CCOC(=O)C1CCC(CN(Cc2ccc(Cl)cc2)S(=O)(=O)c2ccc(Br)cc2)CC1` (stereo unspecified), the survival is inactive: 76%.

As to `CCCN1CCN(CCNC(=O)Nc2ccc(OC)c(OC)c2)CC1`, the survival is inactive: 77%.

For the compound `CCS(=O)(=O)N1CCc2cc(C(=O)NCCc3ccccc3)ccc21`, the survival was inactive: 82%.

Take `C=CCc1cccc2cc(C(N)=O)c(=N)oc12`: the survival was inactive: 88%.

Consider `CCOc1ccc(NC(=O)c2cn(C)c(=O)c3cc(OC)c(OC)cc23)cc1`, for which the survival was inactive: 69%.

In the case of `Cc1cc(C)n(CCc2nc3c4ccccc4nc(N4CCN(c5ccccc5F)CC4)n3n2)n1`, the survival was inactive: 85%.

In the case of `COc1ccc(CCNc2ncnc3c2cnn3-c2cccc(Cl)c2)cc1`, the survival is inactive: 102%.

Turning to `CC(C)CCNC(=O)c1ccc2c(c1)NC(=O)C(CS(=O)(=O)Cc1cccc(Br)c1)N2` (stereo unspecified), the survival is inactive: 116%.

For the compound `Cc1ccc(NC(=O)/C(C#N)=C/c2ccc(C)o2)cc1`, the survival is inactive: 79%.

As for `Cc1ccc(Cn2ccnc2SCC(=O)NCc2ccc(F)cc2)cc1`, the survival was inactive: 101%.

As for `COc1ccc(-c2cc(C(F)F)nc(-n3nc(C)cc3C)n2)cc1`, the survival was inactive: 91%.

For the compound `COc1ccc(NC(=O)CSc2nc3ccccc3n2CC(=O)N(C)c2ccc(F)cc2)cc1`, the survival was inactive: 87%.

For `COCCNC(=O)CCCN1C(=O)c2ccccc2Sc2ncccc21`, the survival was inactive: 70%.

In the case of `Cc1ccc(N=Cc2ccc(C)o2)cc1`, the survival is inactive: 98%.

Consider `COc1ccc(-c2nc(CSCC(=O)N3CCN(c4ccc(OC)cc4)CC3)c(C)o2)cc1`, for which the survival was inactive: 77%.

Consider `CC1CCCCN1C(=O)c1ccccc1F` (stereo unspecified), for which the survival is inactive: 98%.

For the compound `Cc1ccc(-n2c(C)cc(CO)c2C)cc1`, the survival was inactive: 84%.

For `O=S(=O)(c1cccc(F)c1)N1CCC(c2nc3ccccc3s2)CC1`, the survival was inactive: 98%.

For `CCS(=O)(=O)N1CC(=O)N(c2cccc(Cl)c2C)C(C)(C(=O)NC2CCCCC2)C1` (stereo unspecified), the survival is inactive: 76%.

For `COc1ccc(CCN=C(N)Nc2nc(C)cc(C)n2)cc1`, the survival is active: 39%.

On to `CCCN(c1ccccc1CC)S(=O)(=O)c1ccc2c(c1)CC(C)N2C(=O)C1CC1` (stereo unspecified), for which the survival is inactive: 50%.

For the compound `CC(C)CSc1nnc2c3ccccc3n(C)c2n1`, the survival is inactive: 68%.

For the compound `CCCCC(CC)CNC(=O)CCCn1c(=O)[nH]c2ccsc2c1=O` (stereo unspecified), the survival was inactive: 111%.

With `COc1ccc(C)cc1Nc1nc(-c2cccc(Cl)c2)c2c(n1)-c1ccccc1OC2`, the survival is inactive: 68%.

Turning to `COc1cc(-c2nc(Cn3nnc(C(=O)Nc4cc(C)cc(C)c4)c3C)c(C)o2)cc(OC)c1OC`, the survival is inactive: 42%.

Regarding `NNC(=O)c1c(O)c2ccccc2[nH]c1=O`, the survival was inactive: 52%.

`CCOC(=O)c1cc(-c2ccccc2)n(CC(=O)N(C)c2ccc(OC)cc2)c1C`: the survival was inactive: 107%.

As for `CCOc1ccc(NC(=O)C(NC(=O)C2CCC(C)CC2)C(C)C)cc1` (stereo unspecified), the survival is inactive: 71%.

`CCCCN(CCCC)CC(O)Cn1cc(/C=C/C(=O)c2ccccc2)c2ccccc21` (stereo unspecified): the survival was active: 5%.

For the compound `COc1cccc2c1cc1c(=O)n(CC(=O)NC3CC3)nc(C)n12`, the survival was inactive: 109%.

In the case of `O=c1c(=O)n(-c2cccc(Cl)c2)ccn1Cc1cccc(F)c1`, the survival is inactive: 66%.

On to `CC(=O)N1CCc2cc(S(=O)(=O)NC(CC(C)C)C(=O)NCc3ccccc3)ccc21` (stereo unspecified), for which the survival is inactive: 75%.

Take `O=c1c2c(nc3n1CCCS3)-c1ccccc1CC21CCCC1`: the survival is inactive: 73%.

`COc1cccc(-c2nc(CSCC(=O)NCCc3ccc(Cl)cc3)c(C)o2)c1`: the survival was active: -4%.

Take `Cc1nnc(SCC(=O)Nc2ccc(Br)cc2)[nH]c1=O`: the survival was inactive: 101%.

Take `Cc1ccc(C(=O)NS(=O)(=O)c2ccccc2)cc1`: the survival is inactive: 77%.

With `COc1ccc(C2C(=O)N(C3CCC(C)CC3)CC(=O)N2CCc2ccccc2)cc1OC` (stereo unspecified), the survival was inactive: 64%.

With `CSc1cccc(NC(=O)CN(c2ccccc2)S(=O)(=O)N(C)C)c1`, the survival was inactive: 132%.

For `CC1CCN(S(=O)(=O)c2ccc3c(c2)N(CC(=O)NC(C)c2ccccc2)C(=O)CO3)CC1` (stereo unspecified), the survival is inactive: 107%.

On to `Cc1cc(N2CCCCC2)nc2ccc(NC(=O)c3cccc(F)c3)cc12`, for which the survival is inactive: 83%.

Consider `Nc1c(-c2nc(-c3ccc(Cl)cc3)cs2)c2ccccn2c1C(=O)c1ccc2c(c1)OCO2`, for which the survival was inactive: 101%.

On to `Cc1c(C)n(Cc2ccc(Cl)cc2)c2ccc(C(=O)NCCc3ccc(S(N)(=O)=O)cc3)cc12`, for which the survival is inactive: 117%.

Take `COCCCNC(=O)c1cc2c(=O)n3cccc(C)c3nc2s1`: the survival was inactive: 70%.

Turning to `O=S(=O)(Nc1cccc(-c2ccc(N3CCCCC3)nn2)c1)c1cccc(F)c1`, the survival is inactive: 91%.

As for `CCCCc1nc2ccccc2n2c(-c3ccc(C)cc3)c3c(=O)n(C)c(=O)n(C)c3c12`, the survival was inactive: 69%.

`O=[N+]([O-])c1cc(-c2nc(-c3cccnc3)no2)ccc1NCc1ccccc1`: the survival is inactive: 63%.

Turning to `CC(C)c1ccc(NC(=O)CN2C(=O)COc3ccc(S(=O)(=O)Nc4ccccc4)cc32)cc1`, the survival is inactive: 81%.

For `O=C(Nc1ccc(Br)cc1)C1CCN(S(=O)(=O)c2cccc3nsnc23)CC1`, the survival was inactive: 88%.

As to `CC(C)OCCCNC(=O)CCCn1c(SCC(=O)c2ccc(F)cc2)nc2c(sc3ccccc32)c1=O`, the survival was inactive: 92%.

Turning to `Cc1ccc2oc(=O)c3cnn(CC(=O)Nc4cccc(C(F)(F)F)c4)c3c2c1`, the survival was inactive: 87%.

`NC(=O)/C(=C\c1ccco1)NC(=O)c1ccco1`: the survival is inactive: 88%.

Consider `O=C(NCC(c1ccco1)S(=O)(=O)c1ccc(Cl)cc1)c1ccccc1F` (stereo unspecified), for which the survival is inactive: 94%.

As for `COc1ccc(CCNC(=O)c2nnc(Cc3ccc(Cl)cc3)o2)cc1OC`, the survival was inactive: 74%.

On to `CCCc1nnc(NC(=O)Cc2coc3cc(C)cc(C)c23)s1`, for which the survival was inactive: 81%.

For the compound `CCOc1ccc(Nc2nc3ccccc3n3c(CC)nnc23)cc1`, the survival was active: 36%.

Regarding `CCCN1CCN(CCCNC(=O)c2cnn(-c3ccc(F)cc3)c2-n2cccc2)CC1`, the survival was inactive: 81%.

On to `O=S(=O)(c1cccc(C(F)(F)F)c1)n1c(/C=C/c2ccccc2)nc2ccccc21`, for which the survival was inactive: 71%.

Consider `O=C(Cn1c(=O)n(-c2ccccc2)c(=O)c2sc3ccccc3c21)N1CCCC1`, for which the survival was inactive: 92%.

For the compound `CSc1nc2sc3c(c2c(=O)n1-c1ccccc1C)CCCC3`, the survival was inactive: 97%.

For the compound `CCC(=O)N1CCc2cc(Br)cc(S(=O)(=O)NCc3ccc(Cl)cc3)c21`, the survival was inactive: 46%.

As for `Cc1cccc(N2C(=O)CSC23C(=O)N(Cc2cccc(C(F)(F)F)c2)c2ccccc23)c1` (stereo unspecified), the survival was inactive: 107%.

With `COCC(=O)N1c2nc(C(C)C)nn2C2(CCCCC2)[C@@H]2CCCC[C@@H]21`, the survival is inactive: 74%.

`Cc1c(C(=O)NCc2ccccc2)sc2nc3n(c(=O)c12)CCC3`: the survival is inactive: 106%.

Turning to `COC(=O)c1ccc(S(=O)(=O)N(C)C)o1`, the survival was inactive: 68%.

`CN(C)C(=O)CSc1ccc(-c2ccc(F)cc2)nn1`: the survival is inactive: 92%.

For `COCCCNC(=O)CSc1c2c(nc3ccc(Cl)cc13)CCCC2`, the survival was inactive: 68%.

In the case of `CCN(c1ccc(OC)cc1)S(=O)(=O)c1nnc(NC(=O)c2ccccc2Cl)s1`, the survival is active: 46%.

As for `Cc1ccc(CNC(=O)c2ccc(CSCc3ccc(C)cc3)o2)cc1`, the survival is inactive: 95%.

In the case of `CCOc1ccc(C2c3c(oc4ccc(C)cc4c3=O)C(=O)N2Cc2ccc3c(c2)OCO3)cc1OC` (stereo unspecified), the survival was inactive: 136%.

Turning to `C=Cc1ccc(CSc2nc(-c3ccccc3Cl)nc3c2Cc2c(CO)cnc(C)c2O3)cc1`, the survival was inactive: 75%.

For `Cc1nc(N2CCCC2)c2c(C(=O)N3CCN(c4cccc(Cl)c4)CC3)c(C)oc2n1`, the survival was inactive: 102%.
